# Data from PubChem BioAssay AID1508642 (National Center for Advancing Translational Sciences (NCATS), 2021).
# The campaign covered roughly 43,000 compounds. About 200 (0.47%) were called active. Roughly 12% stayed inconclusive and do not appear here. The call rests on the fitted dose curve; in most records, active means well fitted cell-killing curve with a large enough effect; inconclusive means small, poorly fitted or top-dose-only effect, or effect the other way; inactive means flat fitted curve, though single readings scatter. The list shows a part of the results.
# Experiment: Cell viability qHTS assay in S16 Pmp22-F2sN cells; further: nearly all actives have a fitted effect of over 65% in size
# Details: S16 Pmp22-F2sN Schwann cells (luciferase reporters placed in the Pmp22 gene) viability, CellTiter-Glo, 24 h; series mostly up to 57.5 µM; activity change, negative = cytotoxicity: at the top concentration
# Summary of the method: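 CellTiter-Glo counter-screen, qHTS, 1536-well. Cells: S16(c9) Pmp22-F2sN, 500-1,000/well in DMEM + 10% FBS. Cpd 23 nL pin transfer, 24 h, 37C/5% CO2. Read: luminescence, CCD imager.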
# On the % scale 0 is the no-effect control and ±100 the full control effect.
row,Structure (SMILES),"activity change, negative = cytotoxicity"
1,COc1ccc(CCNC(=O)c2cc(=O)[nH]c3ccc(S(=O)(=O)N4CCCCC4)cc23)cc1OC,inactive: 11.1%
2,CN(C)c1ccc(C(=O)NCc2ccc3c(c2)CCN3C(=O)c2ccc(Cl)cc2)cc1,inactive: 1.29%
3,COc1ccc(Cl)cc1NC(=O)CCn1nc(C)cc1C,inactive: -3.24%
4,Clc1ccc(CNc2ncnc3onc(-c4ccc(Cl)cc4)c23)cc1,inactive: -17.4%
5,CCc1cccc(C)c1NC(=O)c1cc(S(=O)(=O)N2CCN(c3ccccc3)CC2)ccc1F,inactive: 0.249%
6,COc1ccc(OC)c(CNc2ncnc3onc(C)c23)c1,inactive: -17%
7,Cc1cccc(CCNC(=O)CCc2c(C)nc3c(c(C)nn3-c3ccccc3)c2C)c1,inactive: 10.6%
8,COc1ccc2c(c1)CC(C(=O)Nc1cc(OC)c(OC)c(OC)c1)CO2 (stereo not given),inactive: -3.44%
9,COc1cc(OC)cc(C(=O)Nc2cccc(-c3cn4ccsc4n3)c2)c1,inactive: -6.76%
10,COc1ccc(C(=O)NCc2ccc3c(c2)CCN3C(=O)c2ccc(Cl)cc2)c(OC)c1,inactive: -6.82%
11,COc1ccccc1NC(=O)C1=C(C)Nc2nc(-c3ccco3)nn2C1c1ccccc1 (stereo not given),inactive: -0.0491%
12,COc1cccc(CNC(=O)c2ccc3c(c2)N(C)C(=O)C2CCCCN32)c1 (stereo not given),inactive: -8.76%
13,COc1ccc(-c2nc(SCC(=O)Nc3ccc4c(c3)OCO4)c(-c3ccccc3)[nH]2)cc1,inactive: -17.8%
14,CCc1ccc(NC(=O)C2CCC(CNS(=O)(=O)c3cccs3)CC2)cc1 (stereo not given),inactive: 8.74%
15,CCOc1ccc(-c2cc3nc(C4CCN(C(=O)OC(C)(C)C)CC4)c(C(=O)Nc4ccc(C)c(F)c4)cn3n2)cc1,inactive: 7.95%
16,CC(C)CCNC(=O)c1cn(C)c2ccc(S(=O)(=O)N3CCCC3)cc2c1=O,inactive: -6.35%
17,Cc1ccccc1OCc1cc(=O)n2c(-c3ccccc3)csc2n1,inactive: -8.06%
18,CCC(=O)N1CCc2cc(Br)cc(S(=O)(=O)N3CCC(C(=O)N(CC)CC)CC3)c21,inactive: -13.5%
19,CCn1cc(C(=O)N2CCN(c3cc(Cl)ccc3C)CC2)c(=O)c2cc(S(=O)(=O)N3CCOCC3)ccc21,inactive: 0.461%
20,CC1CCN(c2cc3c(cc2F)c(=O)c(S(=O)(=O)c2ccc(Cl)cc2)cn3C)CC1,inactive: 0.77%
21,COc1ccc(Nc2nc3c(S(=O)(=O)c4ccc(Br)cc4)nnn3c3ccsc23)c(OC)c1,inactive: 2.38%
22,CCOC(=O)c1c(NC(=O)c2cc(-c3ccc(Cl)cc3)on2)sc2c1CCCC2,inactive: 6.23%
23,Cc1ccc(CNc2oc(-c3ccc(COc4ccc(Cl)cc4)o3)nc2C#N)cc1,inactive: -10.3%
24,Cc1ccc(-n2c3c(c(=O)[nH]c2=O)C(NS(=O)(=O)c2ccc(C)cc2)(C(F)(F)F)C(=O)N3)cc1 (stereo not given),inactive: 3.86%
25,CCOc1ccc(CN2C(=O)c3ccccc3Sc3ccc(C(=O)NCCc4ccccc4)cc32)cc1,inactive: 22.3%
